Among the data in patent US7939546B2, “Quinoline derivatives for modulating DNA methylation” (SuperGen, Inc., priority 2007, dated 2011) are melting point values, retold here.

Where a name gives a salt, the structure may show the parent alone. Read-outs that look alike come from different tables or passages of the source. Entries with a single value are a further part of the results.

The melting point is the temperature, or range, at which the solid turns liquid. Take `C/C(=N\N=C(N)N)c1cccc(NC(=O)c2ccc(Nc3ccnc4ccc(N(C)C)cc34)cc2)c1` (as salt: hydrochloride) [Cpd. JJ1, (E)-N-[3-(1-{(diaminomethylene)hydrazono}ethyl)phenyl]-4-[6-(dimethylamino)quinolin-4-ylamino]benzamide dihydrochloride]: the melting point by setting is: (glue-liquid transition) 278 to 282 °C; (powder-glue transition) 239 to 243 °C.
As to `C/C(=N\N=C(N)N)c1cccc(NC(=O)c2ccc(Nc3ccnc4ccccc34)cc2)c1` (as salt: hydrochloride) [Cpd. JJ2, (E)-N-[3-(1-{(Diaminomethylene)hydrazono}ethyl)phenyl]-4-(quinolin-4-ylamino)benzamide dihydrochloride], the melting point by setting is: (glue-liquid transition) 264 to 268 °C; (powder-glue transition) 240 to 244 °C.
